Consider 41 variants from the RNAGym collection of RNA variant scans (doi:10.7554/elife.90254).

The source gives no read counts; variants with many changes may rest on few reads.

B1: OR4K15 (parent)
chain: GUUAACGGUCAUAGGCCAUGGAAACUAGGAGCACCAUUUCGCUGCCAGUGAAGAAAUGAACAAAGAAAAUCUGGGCCAGGCAGGCAUCAAAAGAAAUAGUCUUGCGCUCAACCAGAAAGUCUGUAAUCAUUUUAAGGGUA

In the series the parent is B1. As to the kind of experiment: self-cleavage, relative activity (ratio to wild type); higher = more cleavage; in vitro, sequencing; the parent is a self-cleaving ribozyme.
Turning to GUUAACGGUCAAAGGCCAUGGAAACUAGGAGCACCAUUUCGCUGCCAGUGAGGAAAUGAACAAAGAAAAUCUGGGCCAGGCAGGCAUCAAAAGAAACAGUCUUGCGCUCAACCAGAAAGUCUGUAAUCAUUUUAAGGGUA, the self-cleavage came to 1.7. As for GUUAACGGUCAAAGGCCAUGGAAACUAGGAGCACCAUUCCGCUGCCAGUGAGGAAAUGAACAAAGAAGAUCUGGGCCAGGCAGGCAUCAAAAGAAAUAGUCUUGCGCUCAACCAGAAAGUCUGUAAUCAUUUUAAGGGUA, the figure is 1.56; as for GUUAACGGUCAAAGGCCAUGGGAACUAGGAGCACCAUUUCGCUGCCAGUGAAGAAAUGAACAAAGUAAAUCUGGGCCAGGCAGGCAUCAAAAGAAAAAGUCUUGCGCUCAACCAGAAAGUCUGUAAUCAUUUUAAGGGUA, 1.51; as for GUUAACGGUCAAAGGCCAUGGAAACUAGGAGCACCAUUUCGCUGCCAGUGAGGUAAUGAACAAAGAAGAUCUGGGCCAGGCAGGCAUCGAAAGAAAUAGUCUUGCGCCCAGCCAGAAAGUCUGUAAUCAUUUUAAGGGUA, 0.02.

Turning to GUUAACGGUCAAAGGCCAUGGAAACUAGGAGCACCAUUUCGCUGCCAGUGAAGAAAUGAACAAAGAAAAUCUGGGCCAGGCAGGCAUCAAAAGAAAUAGUCUUGCGCUCGACCAGAGAGUCUGUAAUCAUUUUAAGGGUA, the self-cleavage stood at 0.35. In the case of GUUAACGGUCAAAGGCCAUGGAAACUAGGUGCACCAUUUCGCUGCCAGUGAAUAAAUGAACAAAGAAAAUCUGGGCGAGGCAGGCAUCAAAAGAAAUAGUCUUGCGCUCAACCGGAAAGUCUGUAAUCAUUUUAAGGGUA it was 0.1. In the case of GUUAACGGUCAAAGGCCAUGGAAACUAGGAGCACCAUUACGCUGCCUGUGAAGAAAUGAACAAAGAAAAUCUGGGCCAGACAGGCAUCAAAAGAAAUAGCCUUGCGCUCAACCAGAAAGUCUGUAAACAUUUUAAGGGUA it was 0.54; in that of GUUAACGGUCAAAGGCCAUGGAAACUAGGAGCACCAUUCCGCUGCCAGCGAAGAAAUGAACAAAGAAAAUCUGGGCCAGGCAGGCAUCAAAAGAAAUAGUCUUGCGCUCAACCAGAAAGUCUGUAAUCAUUUUAAGGGUA, 0.98. As for GUUAACGGUCAAAGGCCAUGGAAACUAGGAGCACCAUUUCGCUGCCAGUGAAGAAAUGAACGAAGAAAAUCUGGGCCAGGCAGGCAUCAAAGGAAAUAGUCUUGCGCUCAACCAGAAAGUCUGUAAUCAUUUUAAGGGUA, the figure is 1.28. Regarding GUUAACGGUCAAAGGCCAUGGAAACUAGGAGCACCAUUUCGCUGCCAGUGAAGAAAUGAACAAAGAAAAUCUGGGCCAGGCAGGCAUCAAAAGAAAUAGUCUUGCGCUCAACCAGAAAGUCCGUAAUCGUUUUAAGGGUA, the self-cleavage worked out at 1.42. In the case of GUUAACGGUCAAGGGCCAUGGAAACUAGGAGCACCAUUUCGCUGCCAGUGAAGAAAUGAACAAAGAAAAUCUGGGCCAGGCAGGCAUCAAAAGAAAUAGUCUUGCGCUCAACCAGAGAGUCCGUAAUCAUUUUAAGGGUA it was 0.81. As for GUUAACGGUCAAAGGCCAUGGAAACUAGGAGCACCAUUUCGCUGCCAGUGAAGAAAUGAACAAAGAAAAUCUGGGCCAGGCAGGCAUCUAAAGAAAUAGUCUUGCGCUCAACCAGAAAGUCUGUAGUCACUUUAAGGGUA, the figure is 0.51. In the case of GUUAACGGUCAAAGGCCAUGGAAACUAGGAGCACCAUUUCGCUGCCAGUGAAGAAAUGAACGAAGAAAAUCUGGGCCAGGCAGGCAUCAAAAGAAAUAGUCUUGCGCUCAACCAGAAAGUCUGUAACCAUUUUAAGGGUA, the self-cleavage amounted to 1.03.

For GUUAACGGUCAAAGGCCAUGGAAACUAGGAGCACCAUUCCGCUGCCAGUGAAGAAAUGAACAAAGAAAAUCUGGGCCAGGCAGGCAUCAAAAGAAAUAGUCUUGCGCUCAACCAGAAAGUCUGUUAUCAUUUUAAGGGUA, the self-cleavage was 0.59. On to GUUAACGGUCAAAGGCCAUGGGAACUAGGAGCACCAUUUCGCUGCCAGUGAAGAAAUGAACAAAGAAAAUCUGGGCCAGGCAGGCAUCAAAAGAAAUAGUCCUGCGCUCAACCAGAAAGUCUGUAAUCAUUUUAAGGGUA, for which the self-cleavage stood at 1.46. As for GUUAACGGUCAAAGGCCAUGGAAACUAGGAGCGCCAUUUCGCUGCCAGUGAAGAAAUGAACAAAGAAAAUCUGGGCCAGGCAGGCAUCAAAAGAAAUAGUCUUGCGCUCAACCAGAAAGUCUGUAAUCUUUUUAAGGGUA, the figure is 0.19.

In the case of GUUAACGGUCAAAGGCCAUGGAAACUAGGAGCACCAUUUCGCUGCCAGUGAGGAAAUGAACAAAGAAAAUCUGGGCCAGGCAGGCAUCUAAAGAAAUAGUCUUGCGCUCUACCAGAAAGUCUGUAAUCAUUUUAAGGGUA, the self-cleavage was 1.76.

In the case of GUUAACGGUCAAAGGCCAUGGAAACUAGGAGCACCAUUUCGCUGUCAGUGAAGAAAUGAACAAAGGAAAUCUGGGCCAGGCAGGCAUCAAAAGAAAUAGUCUUGCGCUCAACCAGAAAGUCUGUAAUCAUUUUAAGGGCA, the self-cleavage is 1.72. As for GUUAACGGUCAAAGGCCAUGGAAACUAGGAGCACCAUCUCGCUGCCAGUGAAGAAAUGAACAAAGAAAAUCUGGGCCAGGCAGGCAUCAAAAGAGAUAGUCUUGCGCUCAACCAGAAAGUCUGUAAUCAUCUUAAGGGUA, the figure is 0.9; as for GUUAACGGUCAAAGGCCAUGGAAACUAGAAGCACCAUUUCGCUGCCAGUGAAGAAAUGAACAAAGAAAAUCUGGGCCAGGCAGGCAUCAAAAGAAAUAGUCUUGCGCUCAACCAGAAAGUCUGUAAUCAUUCUAAGGGUA, 1.03.

As for GUUAACGGUCAAAGGCCAUGGAAACUAGGAGCACCAUUUCGCUGCCAGUGAAGAAAUGAACAGAGAAAAUCUGGGCCAGGCAGGCAUCAAAAGAAAUAGUCCUGCGCUCAACCAGAAAGUCUGUAAUCAUUUUAAGGGUA, the self-cleavage turned out to be 1.29.

GUUAACGGUCAAAGGCCAUGGAAACUAGGAGCACCAUUUCGCUGCCAGUGAAGAAAUGAGCAAAGAAAAUCUGGGCCAGGCAGGCAUCAAAAGAAAUAGUCUUGCGCUCAACCAGUAAGUCUGUAAUCAUUUUAAGGGUA: the self-cleavage came out at 0.16. In the case of GUUAACGGUCAAAGGCCAUGGAAACUAGGAGCACCAUUUCGCUGCCAGUGAAGAAAUGAACAAAGAAGAUCUGGGCCAGGCAGGCAUCAAAAGAAAUAGUCUUGCGCUCAACCAGAAAGUCUGUAAUCAUUUUAGGGGUA it was 1.18; in that of GUUAACGGUCAAAGGCCACGGAAACUAGGAGCACCAUUUCGCUGCCAGUGAAGAAAUGUACAAAGAAAAUCUGGGCCAGGCAGGCAUCAAAAGAAAUAGUCUUGCGCUCAACCAGAAAGUCUGUAAUCAUUUUAAGGGUC, 1.11.

For the variant GUUAACGGUCAAAGGCCAUGGAAACUAGGAGCACCAAUCCGCUGCCAGUGAAGAAAUGAACAAAGAAAAUCUGGGCCGGGCAGGCAUCAAAAGAAAUAGUCUUGCGCUCAACCAGAAGGUCUGUAAUCAUUUUAAGGGUA, the self-cleavage was 0.1.

On to GUUAACGGUCAAAGGCCAUGGAAACUGGGAGCACCAUUUCGCUGCCAGUGAAGAAAUGAACAAAGAAAAUCUGGGCCGGGCAGGCAUCAAGAGAAAUAGUCUUGCGCUCAACCAGGAAGUCUGUAAUCAUUUUAAGGGUA, for which the self-cleavage was determined as 0.14. Take GUUAACGGUCAAAGGCCAUGGAAACUAGGAGCACCAUUUCGCUGCCAGUGAAGAAAUGAACAAAGAAAACCUGGGCCAGGCAGGCAUCAAAAGAAAUAGUCUUGCGCUCAACCAGAAAGUCUGUAGUCAUUUUAAGGGUA: the self-cleavage is 0.61. As for GUUAACGGUCAAAGGCCAUGGAAACUAGGAGCACCAUUUCGCUGCCAGUGAAGAAAUGAACAAAGAAAAUCUGGGCCAGGCAGGCGUCAAAAGAAAUAGUCUUGCGCUCAACCAGAAAGACUGUAAUCAUUUUAAGGGUA, the figure is 1.21; as for GUUAACGGUCAAAGGCCAUGGAAACUAGGAGCACCAUUUCGCUGCCAGUGAAGAAAUGAACAAAGAAAGACUGGGCCAGGCAGGCAUCAAAAGAAAUAGUCUUGCGCUCAACCAGAAAGUCUGUAAUCAUUUUAAGGGUA, 0.37; as for GUUAACGGUCAAAGGCCAUGGAAACUAGGAGCACCAUUCCGCUGCCAGUGAAGAAAUGAACAAAGAAAAUCUGGGCCAGGCAGGCAUCAAAAGAAAUAGUCUCGCGCUCAACCAGAAAGUCUGUAAUCAUUUUAAGGGUA, 0.6. As for GUUAACGGUCAAAGGCCAUGGAAACUAGGAGCACCAUUUCGCUGCCAGUGAAGAAGUGAACAAAGAAAAUCUGGGCCAGGCAGGCAUCAAAGGAAAUAGUCUUGCGCUCAACCAGAAAGUCUGUAACCAUUUUAAGGGAA, the figure is 1.42. In the case of GUUAACGGUCACCGGCCAUGGAAACUAGGAGCACCAUUUCGCUGCCAGUGAAGAAAUGAAUAAAGAAAAUCUGGGCCAGGCAGGCAUCAAGAGAAAUAGUCUUGCGCUCAACCAGAAAGUCUGUAAUCAUUUUAAGGGUA it was 1.43; in that of GUUAACGGUCAAAGGCCAUGGAAACUAGGAGCACCAUUUCGCUGCCAGUGAGGAAAUGAACAAAGAAAAUCUGGGCCAGGCAGGCAUCAAAAGAAAUAGUCUUGCGCUCGACCAGAAAGCCUGUAAUCAUUUUAAGGGUA, 0.03; in that of GUUAACGGUCAAAGGCCAUGGGAACUAGGAGCACCACUUCGCUGCCAGUGAAGAAAUGAACAAAGAAAAUCUGGGCCAGGCAGGCAUCAAAAGAAAUAGUCUUGCGCUCGACCAGAAAGUCUGUAAUCAUUUUAAGGGUA, 0.14. Take GUUAACGGUCAAAGGCCAUGGAAACUAGGAGCACCAUUUCGCUGCCAGUGAAGAAAUGAACAAAGAAAAUCUGGGCCAGACAGGCAUCAAAAGAAAUAGUCUUGCGCUCAACCAGAAAGCCUGUAAUCAUUUUAAGGGUA: the self-cleavage is 0.26. As to GUUAACGGUCACGGGCCAUGGAAACUAGGAGCACCAUUUCGCUGCCAGUGAAGAAAUGAACAAAGAAAGUCUGGGCCAGGCAGGCAUCAAGAGAAAUAGUCUUGCGCUCAACCAGAAAGUCUGUAAUCAUUUUAAGGGUA, the self-cleavage came out at 0.82. In the case of GUUAACGGUCAAAGGCCAUGGAAACUAGGAGCACCAUUUCGCUGCCAGUGAAGAAAUGAACAAAGAAAAUCUGGGCCAGGCAGGCAUCAAGAGAAAUAGUCUUGCGCUCAACCAGAAAGUCUGUAAUCAUAUUAAGGGUA, the self-cleavage stood at 0.69. Turning to GUUAACGGUCACGGGCCAUGGAAACUAGGAGCACCAUUUCGCUGCCAGUGGAGGAAUGAACAAAGAAAAUCUGGGCCAGGCAGGCAUCAAAAGAAAUAGUCUUGCGCUCAACCAGAAAGUCUGUAAUCAUUUUAAGGGUA, the self-cleavage came out at 0.98. As for GUUAACGGUCAAAGGCCAUGGAAACUAGGAGCACCAUUUCGCUGCCAGUGAAGAAAUGAACAAAGAAGAUCUGGGCCAGGCAGGCAUCAAAAGAAACAGUCUUGCGCUCAACCAGAGAGUCUGUAAUCAUUUUAAGGGUA, the figure is 1.04; as for GUUAACGGUCAAAGGCCAUGGAAACUAGGAGCACCAUUUCGCUGCCAGUGACGAAAUGAACAGAGAAAAUCUGGGCCAGGCAGGCAUCAAAAGAAAUAGUCUUGCGCUCAACCAGAAAGUCUGUAAUCAUUUUAAGGGUA, 0.07; as for GUUAACGGUCAAAGGCCAUGGAAACUAGGAGCACCAUUUCGCAGCCAGUGAAGAAAUGAACAAAGGAAAUCUGGGCCAGGCAGGCAUCAAAAGAAAUAGUCUUGCGCUCAACCAGAAAGUCUGUAAUCAUUUUAAGGGUA, 1.
